Data as given in PubChem BioAssay AID624172 (National Center for Advancing Translational Sciences (NCATS), 2012).
In all, about 380,000 compounds went through this assay and about 25 (0.007%) were called active. The inconclusive results got no clear call from the source; some entries with a clear call stand among them for comparison. The call rests on the fitted dose curve; in most records, active means well fitted activation curve with a large enough effect; inconclusive means small, poorly fitted or top-dose-only effect; inactive means no such curve, though single readings can be large or run the other way. Potencies of inconclusive entries are left out as doubtful fits.

Target: Glucagon-like peptide 1 receptor (Homo sapiens) (UniProt P43220)
Chain of UniProt P43220 (P43220 whole entry, looked up): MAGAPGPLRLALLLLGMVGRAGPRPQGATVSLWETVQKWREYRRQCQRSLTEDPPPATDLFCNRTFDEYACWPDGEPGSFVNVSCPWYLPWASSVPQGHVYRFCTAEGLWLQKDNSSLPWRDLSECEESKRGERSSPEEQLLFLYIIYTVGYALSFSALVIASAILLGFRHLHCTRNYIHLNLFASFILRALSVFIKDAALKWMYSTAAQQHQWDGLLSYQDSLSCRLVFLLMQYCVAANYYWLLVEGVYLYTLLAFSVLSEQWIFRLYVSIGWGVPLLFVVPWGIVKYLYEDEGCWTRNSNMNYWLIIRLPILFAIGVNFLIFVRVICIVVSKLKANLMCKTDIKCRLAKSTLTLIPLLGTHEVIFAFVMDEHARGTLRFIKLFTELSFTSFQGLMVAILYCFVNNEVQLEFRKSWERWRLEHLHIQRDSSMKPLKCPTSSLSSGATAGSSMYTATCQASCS
Test: qHTS of GLP-1 Receptor Agonists; on activation: % of control where 0% means no effect
Conditions: HEK293 GLP-1R CRE-luciferase, luminescence, 4-6 h, cells express a hypersensitive GLP-1R form; activation: at 45.6 µM (top of the series) unless noted
Potency means the concentration at half of the fitted maximal effect; tags describe the fitted curve by direction and shape.

| SMILES | Potency | activation |
| --- | --- | --- |
| COc1ccc(-c2cc3cc(OC)c(OC)cc3c(C)n2)cc1 | inconclusive [activator, partial curve, poor fit] | – |
| Cc1cccnc1CCNC(=O)CCc1nnc(-c2ccccc2)o1 | – | inconclusive: 35.1% [activator] |
| O=C1NC(=Nc2ccccc2Cl)S/C1=C\c1cccc([N+](=O)[O-])c1 | inconclusive [activator, partial curve, poor fit] | – |
| CN1CCN(CCC=C2c3ccccc3Sc3ccc(S(=O)(=O)N(C)C)cc32)CC1 | inconclusive [activator, partial curve, poor fit] | – |
| COCCn1c(-c2ccc(SC)cc2)nc2c1c(=O)[nH]c(=O)n2CC(C)C | inconclusive [activator, partial curve, poor fit] | – |
| CNc1ncc(C(=O)c2ccc(Cl)cc2)s1 | inactive | – |
| CCN(CC)c1ccc(C2=NNC(=O)CC2C)cc1[N+](=O)[O-] (centres undefined) | inconclusive [activator, single point] | – |
| COc1ccc(Nc2nc(-c3sc(C)nc3C)cs2)c(OC)c1 | inconclusive [activator, single point] | – |
| O=C(O)c1ccccc1CSc1ncccc1C(=O)O | – | inconclusive: 42.8% [activator] |
| O=C(c1ccccc1)c1sc(N2CCOCC2)nc1-c1ccccc1 | inconclusive [activator, partial curve, poor fit] | – |
| COCCCNC(=O)COc1ccc(-c2nccc(-c3ccccn3)n2)cc1 | inconclusive [activator, single point] | – |
| CCc1c(C)nc(SC/C=C/c2ccccc2)[nH]c1=O | inconclusive [activator, single point] | – |
| CC(C)Cn1c(SCc2nc3ccccc3c(=O)[nH]2)nc2ccccc2c1=O | inactive | – |
| O=C(NCCCN1CCCC1)Nc1ccccc1[N+](=O)[O-] | inactive | – |
| O=C1c2cccc3c(N4CCCCC4)ccc(c23)C(=O)N1CCO | inconclusive [activator, single point] | – |
| CCOc1ccccc1NC(=O)COc1ccc2c(c1)OCO2 | inconclusive [activator, partial curve, poor fit] | – |
| CN(CCOc1ccccc1)C(=O)c1ccc2c(c1)OCO2 | inconclusive [activator, partial curve, poor fit] | – |
| CCN1C(=O)c2cccc3c(S(=O)(=O)Nc4ncccc4C)ccc1c23 | inconclusive [activator, single point] | – |
| CC(C)(C)c1ccc(O)c(N=Cc2cc3c(cc2[N+](=O)[O-])OCO3)c1 | inactive | – |
| O=C(NCc1ccc2c(c1)OCO2)c1sccc1Br | inconclusive [activator, partial curve, poor fit] | – |
| O=S(=O)(Nc1cccc2c1CCCC2)c1ccc(Cl)cc1 | inconclusive [activator, partial curve, poor fit] | – |
| O=C(Nc1ccc(F)c(Cl)c1)c1cc(C2CCCCN2C(=O)c2ccccc2)on1 (centres undefined) | inactive | – |
| OCc1cnc(SCc2ccccc2F)n1Cc1ccc(F)cc1 | inactive | – |

| SMILES | Potency | activation |
| --- | --- | --- |
| Cc1cc(C)cc(NC(=O)C(Cc2ccccc2)NS(=O)(=O)c2ccc3c(c2)CCC(=O)N3)c1 (centres undefined) | inactive | – |
| OC[C@@H]1O[C@](CO)(O[C@H]2O[C@H](CO)[C@@H](O)[C@H](O)[C@H]2O)[C@H](O)[C@H]1O | inactive | – |
| CCOc1ccc(-c2nc(CSc3nnc(C)s3)cs2)cc1OC | inconclusive [activator, single point] | – |
| CCOC(=O)c1c(-c2cccs2)csc1NC(=O)CN1CCOCC1 | inconclusive [activator, partial curve, poor fit] | – |
| OCCN(CCO)c1ncnc2c1sc1nc(N3CCOCC3)c3c(c12)CCCC3 | inconclusive [activator, partial curve, poor fit] | – |
| Cc1ccc(/C=C/c2nnc(-c3ccccc3)o2)cc1 | inactive | – |
| Cc1cc(/C=C2\SC(=S)N(Cc3ccco3)C2=O)c(C)n1-c1cccnc1 | inactive | – |
| O=C(NCc1cccnc1)c1cccnc1Sc1ccc(Cl)cc1 | inconclusive [activator, partial curve, poor fit] | – |
| COC(=O)c1ccc2nc(-c3cccc(N)c3)cn2c1 | inactive | – |
| [O-][n+]1c2c(nn1-c1ccc(Cl)c(Cl)c1)-c1nonc1CC2 | – | inconclusive: 30.1% [activator] |
| COc1cc(OC)c(C2CC(=O)Nc3ccc4ccccc4c32)cc1OC (centres undefined) | inactive | – |
| COc1ccc(S(=O)(=O)Nc2ccc3oc4ncccc4c(=O)c3c2)cc1OC | inconclusive [activator, single point] | – |
| CCc1cccc(NC(=O)COC(=O)c2cc([N+](=O)[O-])ccc2N2CCOCC2)c1 | inconclusive [activator, partial curve, poor fit] | – |
| Cc1cccc(/C=N\N=C\c2cccc(C)c2)c1 | inconclusive [activator, single point] | – |
| COc1ccc(O)c(/C=N/NC(=S)NCCc2ccccc2)c1 | inactive | – |
| CC(C)CCOc1ccc(C(=O)NCC(c2cccs2)N2CCOCC2)cc1 (centres undefined) | inactive | – |
| Cc1snc(SCc2cccc(Cl)c2)c1C#N | inconclusive [activator, partial curve, poor fit] | – |
| COC(=O)c1c(C(=O)OC)c2oc3ccccc3n2c1Cl | inconclusive [activator, partial curve, poor fit] | – |
| N#C/C(=C1/SCC(c2ccccc2Cl)S1)n1ccnc1 (centres undefined) | inconclusive [activator, full curve, poor fit] | – |
| CC(C)(C)Nc1nc(Cl)nc(NCc2ccccc2)n1 | inconclusive [activator, partial curve] | – |
| CC(C)CNc1c(N)c(=O)oc2ccccc12 | inconclusive [activator, partial curve, poor fit] | – |
| CCOC(=O)C1=C(C)NC(C)=C(C(=O)OCC)C1c1ccc(OC)c(OC)c1 | inconclusive [activator, partial curve, poor fit] | – |
| CCOC(=O)c1sc2ncn(CC(=O)NCC3CCCO3)c(=O)c2c1C (centres undefined) | inconclusive [activator, single point] | – |

| SMILES | Potency | activation |
| --- | --- | --- |
| COc1ccc(-c2csc(NC(=O)CSc3nc(SC)ns3)n2)cc1 | inactive | – |
| CCOc1nc(C)ccc1-c1noc(-c2ccccn2)n1 | inconclusive [activator, partial curve, poor fit] | – |
| N/N=C(\Cc1cscn1)c1ccc(O)cc1O | inconclusive [activator, partial curve, poor fit] | – |
| CCN1/C(=C/C=C/c2oc3ccc4ccccc4c3[n+]2CC)Oc2ccc3ccccc3c21 | inactive | – |
| COc1ccc(-c2cnc3c(NC(C)=O)cc(-c4ccccc4OC)cn23)cc1OC | inconclusive [activator, partial curve] | – |
| COc1ccc(CN(Cc2ccccn2)C(=O)CN2C(=O)COc3ccccc32)cc1 | inconclusive [activator, single point] | – |
| O=c1c2ccccc2cnn1-c1ccc(Cl)cc1 | – | inconclusive: 23.3% [activator] |
| Cc1ccc2nc(N3CCN(C=O)CC3)nc(-c3ccccc3)c2c1 | inconclusive [activator, single point] | – |
| O=C(NC(=S)Nc1nc2c(s1)CSc1ccccc1-2)c1ccccc1 | inactive | – |
| CCc1nnc(NC(=O)C=C(C)C)s1 | inactive | – |
| O=C(O)Cn1c(C(=O)Nc2nc(-c3ccccc3Cl)cs2)cc2ccccc21 | – | inconclusive: 49.6% [activator] |
| COc1cccc(Cn2c(N)c(C#N)c3nc4ccccc4nc32)c1OC | inconclusive [activator, full curve, poor fit] | – |
| COc1ccc(OC)c2sc(N(CCCN(C)C)C(=O)CCS(=O)(=O)c3ccccc3)nc12 | inactive | – |
| Nc1ccc(S(=O)(=O)NC(=O)c2ccccc2)cc1 | – | inconclusive: 39.4% [activator] |
| COc1cc2c(cc1OC)C1CC(=O)C(CC(C)C)CN1CC2 (centres undefined) | inconclusive [activator, partial curve, poor fit] | – |
| CCN(CC)c1cc(C)c2cc(NC(=O)c3ccccc3Cl)ccc2n1 | inactive | – |
| Cc1ccc(-c2nn(C)c(=O)c3ccccc23)cc1S(=O)(=O)NCCN1CCOCC1 | inconclusive [activator, partial curve, poor fit] | – |
| CC1N=C2c3ccccc3N=C(SCc3cc(=O)n4cc(Cl)ccc4n3)N2C1=O (centres undefined) | inconclusive [activator, single point] | – |
| CCN(CC)c1nc2ccccc2nc1C(C#N)C(=O)NCCCOC (centres undefined) | inconclusive [activator, partial curve] | – |
| Cc1noc(C)c1COC(=O)c1csc2c1CCC(C)C2 (centres undefined) | inconclusive [activator, single point] | – |
| COc1ccc(OC)c(/C=N/n2c(-c3n[nH]c4c3CCC4)n[nH]c2=S)c1 | – | inconclusive: 46.4% [activator] |
| Cc1ccccc1Nc1nc(N)nc(COC(=O)c2cccc(S(=O)(=O)N(C)C)c2)n1 | inconclusive [activator, full curve, poor fit] | – |
| CC(=O)Nc1ccc(CC(=O)NCCC(c2ccccc2)c2ccccc2)cc1 | – | inconclusive: 43.2% [activator] |
